The other results are listed elsewhere or left out. Binding of human transcription factors and regulators to the viral nucleoprotein by AlphaScreen, crude cell-free proteins, amounts not normalised, one pass. Fold of the Venus control; higher = more signal. No active / inactive call. Single-pass screen; sequences are the whole Swiss-Prot entries looked up by name.
B1: POU3F1, Q03052 (protein)
chain: MATTAQYLPRGPGGGAGGTGPLMHPDAAAAAAAAAAAERLHAGAAYREVQKLMHHEWLGAGAGHPVGLAHPQWLPTGGGGGGDWAGGPHLEHGKAGGGGTGRADDGGGGGGFHARLVHQGAAHAGAAWAQGSTAHHLGPAMSPSPGASGGHQPQPLGLYAQAAYPGGGGGGLAGMLAAGGGGAGPGLHHALHEDGHEAQLEPSPPPHLGAHGHAHGHAHAGGLHAAAAHLHPGAGGGGSSVGEHSDEDAPSSDDLEQFAKQFKQRRIKLGFTQADVGLALGTLYGNVFSQTTICRFEALQLSFKNMCKLKPLLNKWLEETDSSSGSPTNLDKIAAQGRKRKKRTSIEVGVKGALESHFLKCPKPSAHEITGLADSLQLEKEVVRVWFCNRRQKEKRMTPAAGAGHPPMDDVYAPGELGPGGGGASPPSAPPPPPPAALHHHHHHTLPGSVQ
B2: FZD6, O60353 (protein)
chain: MEMFTFLLTCIFLPLLRGHSLFTCEPITVPRCMKMAYNMTFFPNLMGHYDQSIAAVEMEHFLPLANLECSPNIETFLCKAFVPTCIEQIHVVPPCRKLCEKVYSDCKKLIDTFGIRWPEELECDRLQYCDETVPVTFDPHTEFLGPQKKTEQVQRDIGFWCPRHLKTSGGQGYKFLGIDQCAPPCPNMYFKSDELEFAKSFIGTVSIFCLCATLFTFLTFLIDVRRFRYPERPIIYYSVCYSIVSLMYFIGFLLGDSTACNKADEKLELGDTVVLGSQNKACTVLFMLLYFFTMAGTVWWVILTITWFLAAGRKWSCEAIEQKAVWFHAVAWGTPGFLTVMLLAMNKVEGDNISGVCFVGLYDLDASRYFVLLPLCLCVFVGLSLLLAGIISLNHVRQVIQHDGRNQEKLKKFMIRIGVFSGLYLVPLVTLLGCYVYEQVNRITWEITWVSDHCRQYHIPCPYQAKAKARPELALFMIKYLMTLIVGISAVFWVGSKKTCTEWAGFFKRNRKRDPISESRRVLQESCEFFLKHNSKVKHKKKHYKPSSHKLKVISKSMGTSTGATANHGTSAVAITSHDYLGQETLTEIQTSPETSMREVKADGASTPRLREQDCGEPASPAASISRLSGEQVDGKGQAGSVSESARSEGRISPKSDITDTGLAQSNNLQVPSSSEPSSLKGSTSLLVHPVSGVRKEQGGGCHSDT
B3: TNFAIP3, P21580 (protein)
chain: MAEQVLPQALYLSNMRKAVKIRERTPEDIFKPTNGIIHHFKTMHRYTLEMFRTCQFCPQFREIIHKALIDRNIQATLESQKKLNWCREVRKLVALKTNGDGNCLMHATSQYMWGVQDTDLVLRKALFSTLKETDTRNFKFRWQLESLKSQEFVETGLCYDTRNWNDEWDNLIKMASTDTPMARSGLQYNSLEEIHIFVLCNILRRPIIVISDKMLRSLESGSNFAPLKVGGIYLPLHWPAQECYRYPIVLGYDSHHFVPLVTLKDSGPEIRAVPLVNRDRGRFEDLKVHFLTDPENEMKEKLLKEYLMVIEIPVQGWDHGTTHLINAAKLDEANLPKEINLVDDYFELVQHEYKKWQENSEQGRREGHAQNPMEPSVPQLSLMDVKCETPNCPFFMSVNTQPLCHECSERRQKNQNKLPKLNSKPGPEGLPGMALGASRGEAYEPLAWNPEESTGGPHSAPPTAPSPFLFSETTAMKCRSPGCPFTLNVQHNGFCERCHNARQLHASHAPDHTRHLDPGKCQACLQDVTRTFNGICSTCFKRTTAEASSSLSTSLPPSCHQRSKSDPSRLVRSPSPHSCHRAGNDAPAGCLSQAARTPGDRTGTSKCRKAGCVYFGTPENKGFCTLCFIEYRENKHFAAASGKVSPTASRFQNTIPCLGRECGTLGSTMFEGYCQKCFIEAQNQRFHEAKRTEEQLRSSQRRDVPRTTQSTSRPKCARASCKNILACRSEELCMECQHPNQRMGPGAHRGEPAPEDPPKQRCRAPACDHFGNAKCNGYCNECFQFKQMYG
B4: CUX2, O14529 (protein)
chain: MAANVGSMFQYWKRFDLRRLQKELNSVASELSARQEESEHSHKHLIELRREFKKNVPEEIREMVAPVLKSFQAEVVALSKRSQEAEAAFLSVYKQLIEAPDPVPVFEAARSLDDRLQPPSFDPSGQPRRDLHTSWKRNPELLSPKEQREGTSPAGPTLTEGSRLPGIPGKALLTETLLQRNEAEKQKGLQEVQITLAARLGEAEEKIKVLHSALKATQAELLELRRKYDEEAASKADEVGLIMTNLEKANQRAEAAQREVESLREQLASVNSSIRLACCSPQGPSGDKVNFTLCSGPRLEAALASKDREILRLLKDVQHLQSSLQELEEASANQIADLERQLTAKSEAIEKLEEKLQAQSDYEEIKTELSILKAMKLASSTCSLPQGMAKPEDSLLIAKEAFFPTQKFLLEKPSLLASPEEDPSEDDSIKDSLGTEQSYPSPQQLPPPPGPEDPLSPSPGQPLLGPSLGPDGTRTFSLSPFPSLASGERLMMPPAAFKGEAGGLLVFPPAFYGAKPPTAPATPAPGPEPLGGPEPADGGGGGAAGPGAEEEQLDTAEIAFQVKEQLLKHNIGQRVFGHYVLGLSQGSVSEILARPKPWRKLTVKGKEPFIKMKQFLSDEQNVLALRTIQVRQRGSITPRIRTPETGSDDAIKSILEQAKKEIESQKGGEPKTSVAPLSIANGTTPASTSEDAIKSILEQARREMQAQQQALLEMEVAPRGRSVPPSPPERPSLATASQNGAPALVKQEEGSGGPAQAPLPVLSPAAFVQSIIRKVKSEIGDAGYFDHHWASDRGLLSRPYASVSPSLSSSSSSGYSGQPNGRAWPRGDEAPVPPEDEAAAGAEDEPPRTGELKAEGATAEAGARLPYYPAYVPRTLKPTVPPLTPEQYELYMYREVDTLELTRQVKEKLAKNGICQRIFGEKVLGLSQGSVSDMLSRPKPWSKLTQKGREPFIRMQLWLSDQLGQAVGQQPGASQASPTEPRSSPSPPPSPTEPEKSSQEPLSLSLESSKENQQPEGRSSSSLSGKMYSGSQAPGGIQEIVAMSPELDTYSITKRVKEVLTDNNLGQRLFGESILGLTQGSVSDLLSRPKPWHKLSLKGREPFVRMQLWLNDPHNVEKLRDMKKLEKKAYLKRRYGLISTGSDSESPATRSECPSPCLQPQDLSLLQIKKPRVVLAPEEKEALRKAYQLEPYPSQQTIELLSFQLNLKTNTVINWFHNYRSRMRREMLVEGTQDEPDLDPSGGPGILPPGHSHPDPTPQSPDSETEDQKPTVKELELQEGPEENSTPLTTQDKAQVRIKQEQMEEDAEEEAGSQPQDSGELDKGQGPPKEEHPDPPGNDGLPKVAPGPLLPGGSTPDCPSLHPQQESEAGERLHPDPLSFKSASESSRCSLEVSLNSPSAASSPGLMMSVSPVPSSSAPISPSPPGAPPAKVPSASPTADMAGALHPSAKVNPNLQRRHEKMANLNNIIYRVERAANREEALEWEF
B5: S100A9, P06702 (protein)
chain: MTCKMSQLERNIETIINTFHQYSVKLGHPDTLNQGEFKELVRKDLQNFLKKENKNEKVIEHIMEDLDTNADKQLSFEEFIMLMARLTWASHEKMHEGDEGPGHHHKPGLGEGTP
B6: TBX3, O15119 (protein)
chain: MSLSMRDPVIPGTSMAYHPFLPHRAPDFAMSAVLGHQPPFFPALTLPPNGAAALSLPGALAKPIMDQLVGAAETGIPFSSLGPQAHLRPLKTMEPEEEVEDDPKVHLEAKELWDQFHKRGTEMVITKSGRRMFPPFKVRCSGLDKKAKYILLMDIIAADDCRYKFHNSRWMVAGKADPEMPKRMYIHPDSPATGEQWMSKVVTFHKLKLTNNISDKHGFTLAFPSDHATWQGNYSFGTQTILNSMHKYQPRFHIVRANDILKLPYSTFRTYLFPETEFIAVTAYQNDKITQLKIDNNPFAKGFRDTGNGRREKRKQLTLQSMRVFDERHKKENGTSDESSSEQAAFNCFAQASSPAASTVGTSNLKDLCPSEGESDAEAESKEEHGPEACDAAKISTTTSEEPCRDKGSPAVKAHLFAAERPRDSGRLDKASPDSRHSPATISSSTRGLGAEERRSPVREGTAPAKVEEARALPGKEAFAPLTVQTDAAAAHLAQGPLPGLGFAPGLAGQQFFNGHPLFLHPSQFAMGGAFSSMAAAGMGPLLATVSGASTGVSGLDSTAMASAAAAQGLSGASAATLPFHLQQHVLASQGLAMSPFGSLFPYPYTYMAAAAAASSAAASSSVHRHPFLNLNTMRPRLRYSPYSIPVPVPDGSSLLTTALPSMAAAAGPLDGKVAALAASPASVAVDSGSELNSRSSTLSSSSMSLSPKLCAEKEAATSELQSIQRLVSGLEAKPDRSRSASP
B7: CREB3L2, Q70SY1 (protein)
chain: MEVLESGEQGVLQWDRKLSELSEPGDGEALMYHTHFSELLDEFSQNVLGQLLNDPFLSEKSVSMEVEPSPTSPAPLIQAEHSYSLCEEPRAQSPFTHITTSDSFNDDEVESEKWYLSTDFPSTSIKTEPVTDEPPPGLVPSVTLTITAISTPLEKEEPPLEMNTGVDSSCQTIIPKIKLEPHEVDQFLNFSPKEAPVDHLHLPPTPPSSHGSDSEGSLSPNPRLHPFSLPQTHSPSRAAPRAPSALSSSPLLTAPHKLQGSGPLVLTEEEKRTLIAEGYPIPTKLPLSKSEEKALKKIRRKIKNKISAQESRRKKKEYMDSLEKKVESCSTENLELRKKVEVLENTNRTLLQQLQKLQTLVMGKVSRTCKLAGTQTGTCLMVVVLCFAVAFGSFFQGYGPYPSATKMALPSQHSLQEPYTASVVRSRNLLIYEEHSPPEESSSPGSAGELGGWDRGSSLLRVSGLESRPDVDLPHFIISNETSLEKSVLLELQQHLVSAKLEGNETLKVVELDRRVNTTF
B8: ANKRD30A, Q9BXX3 (protein)
chain: MEEISAAAVKVVPGPERPSPFSQLVYTSNDSYIVHSGDLRKIHKAASRGQVRKLEKMTKRKKTINLNIQDAQKRTALHWACVNGHEEVVTFLVDRKCQLDVLDGEHRTPLMKALQCHQEACANILIDSGADINLVDVYGNTALHYAVYSEILSVVAKLLSHGAVIEVHNKASLTPLLLSITKRSEQIVEFLLIKNANANAVNKYKCTALMLAVCHGSSEIVGMLLQQNVDVFAADICGVTAEHYAVTCGFHHIHEQIMEYIRKLSKNHQNTNPEGTSAGTPDEAAPLAERTPDTAESLVEKTPDEAAPLVERTPDTAESLVEKTPDEAASLVEGTSDKIQCLEKATSGKFEQSAEETPREITSPAKETSEKFTWPAKGRPRKIAWEKKEDTPREIMSPAKETSEKFTWAAKGRPRKIAWEKKETPVKTGCVARVTSNKTKVLEKGRSKMIACPTKESSTKASANDQRFPSESKQEEDEEYSCDSRSLFESSAKIQVCIPESIYQKVMEINREVEEPPKKPSAFKPAIEMQNSVPNKAFELKNEQTLRADPMFPPESKQKDYEENSWDSESLCETVSQKDVCLPKATHQKEIDKINGKLEESPNKDGLLKATCGMKVSIPTKALELKDMQTFKAEPPGKPSAFEPATEMQKSVPNKALELKNEQTLRADEILPSESKQKDYEENSWDTESLCETVSQKDVCLPKAAHQKEIDKINGKLEGSPVKDGLLKANCGMKVSIPTKALELMDMQTFKAEPPEKPSAFEPAIEMQKSVPNKALELKNEQTLRADEILPSESKQKDYEESSWDSESLCETVSQKDVCLPKATHQKEIDKINGKLEESPDNDGFLKAPCRMKVSIPTKALELMDMQTFKAEPPEKPSAFEPAIEMQKSVPNKALELKNEQTLRADQMFPSESKQKKVEENSWDSESLRETVSQKDVCVPKATHQKEMDKISGKLEDSTSLSKILDTVHSCERARELQKDHCEQRTGKMEQMKKKFCVLKKKLSEAKEIKSQLENQKVKWEQELCSVRLTLNQEEEKRRNADILNEKIREELGRIEEQHRKELEVKQQLEQALRIQDIELKSVESNLNQVSHTHENENYLLHENCMLKKEIAMLKLEIATLKHQYQEKENKYFEDIKILKEKNAELQMTLKLKEESLTKRASQYSGQLKVLIAENTMLTSKLKEKQDKEILEAEIESHHPRLASAVQDHDQIVTSRKSQEPAFHIAGDACLQRKMNVDVSSTIYNNEVLHQPLSEAQRKSKSLKINLNYAGDALRENTLVSEHAQRDQRETQCQMKEAEHMYQNEQDNVNKHTEQQESLDQKLFQLQSKNMWLQQQLVHAHKKADNKSKITIDIHFLERKMQHHLLKEKNEEIFNYNNHLKNRIYQYEKEKAETENS

Target: nucleoprotein N of Crimean-Congo hemorrhagic fever virus
Test: AlphaScreen luminescence signal relative to Venus negative control (fold); higher = stronger binding to CCHFV N
Procedure: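 AlphaScreen binding of cell-free made, FLAG-GST-tagged human transcription factors and regulators (crude translation products) to biotinylated N protein; signal as fold of the FLAG-GST-Venus control. One pass.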

Question: For B1, which AlphaScreen luminescence signal is on record?
Answer: 2.23

Question: For B2, which AlphaScreen luminescence signal is on record?
Answer: 2.14

Question: With B3 as the binder, how does the AlphaScreen luminescence signal read?
Answer: 2.23

Question: For B4, which AlphaScreen luminescence signal is on record?
Answer: 1.21

Question: Which AlphaScreen luminescence signal does the source give for B5 here?
Answer: 1.21

Question: For B6, which AlphaScreen luminescence signal is on record?
Answer: 3.77

Question: For B7, which AlphaScreen luminescence signal is on record?
Answer: 3.02

Question: With B8 as the binder, how does the AlphaScreen luminescence signal read?
Answer: 2.74

Reference: the supplement of paper PMC12423691
